The record followed here is paper PMC5836133.

The other results are listed elsewhere or left out. At the low end of the ranking, values are background and their order means little.

This assay has as its system T1, GST-NbGlk1(82-244).
T1 sequence: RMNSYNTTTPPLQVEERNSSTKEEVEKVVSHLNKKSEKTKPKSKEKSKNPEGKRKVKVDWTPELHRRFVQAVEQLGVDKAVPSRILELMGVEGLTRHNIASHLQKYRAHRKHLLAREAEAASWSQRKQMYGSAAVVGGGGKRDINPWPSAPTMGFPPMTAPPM
Description: protein-binding microarray.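 Also: rank-based score ranging −0.5 to +0.5 with E above 0.45 taken as significant binding.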 The conditions noted are these: NbGlk1 is a Golden2-like transcription factor of Nicotiana benthamiana; high values mean tight binding; most listed sequences are background and not binding sites; double strand, one strand shown.
Take ACGCGCAG: the binding signal is -0.109 E-score.
AATGGGCA registered a binding signal of -0.178 E-score.
The sequence ATCAGTCG yielded a binding signal of 0.00923 E-score.
Then CACACTTC, with 0.0916 E-score; and ATGATCCA, with 0.149 E-score; and AACGAACC, with -0.153 E-score.
To AATAATGC belongs 0.174 E-score; to ACCTGAGT, -0.155 E-score.
To AAGTGTGA belongs 0.019 E-score; to AACGGCAT, -0.147 E-score; to ACTGGACC, -0.173 E-score.
Regarding ACGGTACC, the binding signal was 0.036 E-score.
Then AACTCCAA, with -0.0275 E-score.
To ACGAAGCA belongs -0.124 E-score; to ATACAAGA, 0.127 E-score; to AAAATTTC, 0.276 E-score.
To CAGAGAAC belongs -0.0236 E-score; to AGAACCTA, -0.0884 E-score.
On to ATTCGCTG, for which the binding signal was found to be 0.298 E-score.
To AAGTGAGT belongs -0.0722 E-score; to ATATGTAG, 0.163 E-score.
To AGCCTTGA belongs -0.0553 E-score; to ACCTGTGG, -0.162 E-score; to ATGGGCGC, -0.116 E-score.
To ACAGAATG belongs -0.153 E-score; to ATCAATAC, 0.175 E-score.
As to AACGGTTC, the binding signal was -0.208 E-score.
Sequence ATTCCTGG returned a binding signal of 0.119 E-score.
For AGCTCATC, the binding signal is -0.191 E-score.
To AGCGTAAG belongs -0.15 E-score; to CAAAGAGC, -0.175 E-score; to ATGCCATG, -0.255 E-score.
As to AGAAACCA, the binding signal is -0.00454 E-score.
Then CACCCCTC, with -0.154 E-score; and ACGGTGAT, with 0.223 E-score; and AGGTCAAG, with -0.145 E-score.
In turn, AGAGCCAT displayed a binding signal of -0.143 E-score.
AAGCGTAT gave a binding signal of 0.1 E-score.
Then AGGCGAAC, with -0.158 E-score; and CACCCCGG, with -0.344 E-score.
Then AATTGTCC, with 0.117 E-score; and AAGTTAAT, with 0.0355 E-score.
Then AACGAAAG, with 0.0404 E-score; and AACAAAGT, with -0.0877 E-score; and ATTCGGGA, with 0.286 E-score.
AGCCACTA came in with a binding signal of -0.0957 E-score.
AGTAACGA showed a binding signal of 0.0335 E-score.
Sequence AGACTCAA gave a binding signal of -0.116 E-score.
To ACGTGATA belongs 0.186 E-score; to ATATTGTG, 0.235 E-score.
In the case of CACCGTAG, the binding signal was -0.204 E-score.
For the sequence AGTTTCAC, the binding signal is -0.103 E-score.
Then CACCCCAG, with -0.0975 E-score.
To ACAACGTA belongs 0.0956 E-score.
To AGGGTCAA belongs -0.142 E-score; to ATCATGCA, 0.0462 E-score; to ACCATCGT, -0.122 E-score.
ACCGGTGA came in with a binding signal of -0.176 E-score.
Then ATACCAAC, with 0.0082 E-score; and AAGGACTA, with -0.137 E-score.
To AGGTCATC belongs -0.297 E-score.
Then CAAATAAC, with 0.129 E-score.
The sequence ACGTTGAC displayed a binding signal of -0.218 E-score.
To ACCTCTTA belongs -0.0337 E-score; to AATACGCA, 0.158 E-score; to ATGTGGGC, -0.228 E-score.
To AAAAAAAA belongs 0.221 E-score; to ACCGGAAA, -0.023 E-score; to AAGAAGTC, -0.0686 E-score.
Then AGCGATAC, with 0.159 E-score; and AAAAAGTC, with 0.0671 E-score; and AGCGTACA, with -0.00954 E-score.
Take ATTTAGCG: the binding signal stood at 0.132 E-score.
To AAGATCTT belongs 0.399 E-score.
Then ATATAAGC, with 0.0407 E-score; and AATTTTGC, with 0.0496 E-score.
Then AGCTGAAC, with -0.255 E-score; and AAACAAGG, with -0.0516 E-score; and ATCGGGGG, with -0.0347 E-score.
ATACTGAG came in with a binding signal of 0.104 E-score.
To ACTGTACC belongs -0.163 E-score; to ATCGCTTG, 0.192 E-score.
Then AGTCCGCC, with -0.227 E-score.
To ATTACCGG belongs 0.18 E-score.
Regarding ATTTAATC, the binding signal was 0.117 E-score.
Then ACCTGTTG, with -0.118 E-score; and CAGATAAG, with 0.118 E-score.
To ATAGGCAG belongs -0.0725 E-score.
Turning to ATCAGATC, the binding signal was determined as 0.35 E-score.
To ATTTTCGA belongs 0.266 E-score; to AGATTCAT, 0.24 E-score.
Then AGATCTGC, with 0.411 E-score; and ACGCCGGG, with -0.153 E-score.
With ACGGGTGC, the binding signal was -0.345 E-score.
Then AGCGTGCC, with -0.327 E-score; and AACGCCAG, with -0.29 E-score; and ACCTCTAG, with -0.162 E-score.
To CACGTTCG belongs -0.138 E-score; to AATTTAGG, 0.172 E-score.
As to ACACGCTC, the binding signal is -0.108 E-score.
To AGCAACCA belongs -0.0543 E-score; to AAGCTAGG, -0.0998 E-score.
Take ACTACTAG: the binding signal is -0.124 E-score.
To ATTCGCGA belongs 0.318 E-score.
Consider AAATGCAA, for which the binding signal is 0.097 E-score.
As to ATAAAGAC, the binding signal came out at 0.121 E-score.
Sequence AGTGCTCG displayed a binding signal of -0.134 E-score.
Then AAAGATCT, with 0.38 E-score; and ACACTATC, with 0.0525 E-score.
ACGCTTCC yielded a binding signal of -0.161 E-score.
Then ATGAACGG, with -0.0903 E-score.
Then AGTCATGA, with 0.0313 E-score.
The sequence ACTCAACG showed a binding signal of -0.0861 E-score.
Then AGTTACGA, with 0.0503 E-score; and AGCAACGC, with -0.202 E-score.
Then ATAATGTA, with 0.2 E-score; and ACTCGCAC, with -0.163 E-score; and ACCCTTGG, with -0.144 E-score.
Then ATAAATCC, with 0.244 E-score; and ATACTCGG, with 0.142 E-score.
ATCGTCTG yielded a binding signal of 0.0629 E-score.
Then ACAGTGCA, with 0.0164 E-score.
Then ATCTGAGC, with 0.219 E-score; and AATCCTGA, with 0.399 E-score; and ATCATTGG, with 0.111 E-score.
Then AGTTGGGA, with 0.0639 E-score.
ATATAGCC displayed a binding signal of 0.0876 E-score.
Then ATGCTCGA, with -0.07 E-score.
Then ACTTTTAT, with 0.155 E-score; and ACGGATAA, with 0.0259 E-score; and AAGTATTC, with 0.00686 E-score.
Then ACGCCGAC, with -0.257 E-score; and ACTCCCGA, with 0.0489 E-score.
With ACACGCTA, the binding signal was -0.0171 E-score.
To AGCCTACT belongs -0.16 E-score; to AACTGAGT, -0.189 E-score; to AGGACTTC, -0.162 E-score.
To ATGCAATC belongs 0.452 E-score; to CAAATTTC, 0.232 E-score; to CACTCAGG, -0.286 E-score.
To AATCTGTC belongs 0.391 E-score; to ACTAGTCT, -0.0503 E-score; to AACTAGCC, -0.0582 E-score.
CAGCGAGG gave a binding signal of -0.137 E-score.
Consider AGACCAGC, for which the binding signal was -0.134 E-score.
Then ACACGAAT, with 0.25 E-score.
For the sequence ATCGGGAA, the binding signal came out at 0.276 E-score.
Then CAAATCAA, with 0.228 E-score; and ATTTGGAA, with 0.149 E-score.
Regarding ATTACCCC, the binding signal is 0.247 E-score.
As to CACCGGCG, the binding signal was -0.231 E-score.
ATTTCCAG came in with a binding signal of 0.343 E-score.
To ATCATCAG belongs 0.0567 E-score; to AATCTAAC, 0.413 E-score.
To AAACCTAC belongs -0.00276 E-score; to AAAATTTA, 0.248 E-score; to CACCTCGG, -0.222 E-score.
To ATGAAAAT belongs 0.321 E-score.
ATTGTTAG: the binding signal was 0.143 E-score.
The sequence CAATCCGA had a binding signal of 0.35 E-score.
To ACATAGAT belongs 0.223 E-score; to AGACTCAC, -0.277 E-score; to ACGTCCAA, -0.153 E-score.
On to AAGGTGCT, for which the binding signal is -0.185 E-score.
To ATGGGACG belongs -0.158 E-score; to AATTGTGG, 0.15 E-score; to ATTTTATA, 0.281 E-score.
Then AACTCGGC, with -0.0141 E-score.
To ACAGTCGA belongs -0.00395 E-score.
In turn, AAGCTAGA returned a binding signal of 0.0466 E-score.
To AGTAGCCG belongs -0.225 E-score.
To ATGGGTAA belongs 0.0482 E-score.
